Screen size: about 45,000 compounds; about 200 (0.44%) were called active. Another 7% or so got no clear call; they are omitted. Calls come from the whole dose curve; as a rule, active = well fitted activation curve with a large enough effect; inconclusive = small, poorly fitted or top-dose-only effect; inactive = no such curve, though single readings can be large or run the other way. The list shows a part of the results.

The assay is described as follows: qHTS of TDP-43 Inhibitors: NCGC Sytravon Library Screen. Note: 0% is about no effect; nearly all actives have a fitted effect of over 55% in size. Conditions: yeast TDP-43 toxicity rescue, BacTiter-Glo growth, 24 h; series mostly up to 46.1 µM; growth rescue (activation): at the top concentration. In short, it runs like this: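 TDP-43-expressing yeast, pregrown in raffinose, seeded at OD600 0.02 in galactose medium with compound for 24 hr at 30 deg C. Growth read by BacTiter-Glo luminescence, so rescue of toxicity appears as activation.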
As for `O=C(NCCc1ccccc1)C(=O)c1c[nH]c2ccccc12`, the “growth rescue (activation)” value was inactive: 16.5%.
For `CC(OC(=O)c1ccc2c(=O)n3c(nc2c1)CCCCC3)C(=O)Nc1ccc(Cl)cn1` (stereo not drawn) the value was inactive: 8.93%; for `Cc1noc(C)c1COc1ccc(CC(=O)NC2CCCCCC2)cc1`, inactive: 25%.
For `CCOC(=O)C1CCCN(C(=O)c2cc(F)ccc2C)CC1` (stereo not drawn) the value was inactive: 23.4%.
For `CCc1ccc(NC(=O)C(C)OC(=O)c2cccc(S(=O)(=O)N3CCc4ccccc4C3)c2)cc1` (stereo not drawn) the value was inactive: -5.43%.
In the case of `CCC(=O)Nc1ccc(C(=O)Nc2ccc(OC)cc2[N+](=O)[O-])cc1`, the “growth rescue (activation)” value is inactive: 13.4%.
With `O=c1cc(-c2cccc(Br)c2)nc(-c2ccccc2F)o1`, the “growth rescue (activation)” value was inactive: -10.1%.
For `CCN(CC)CCCNc1oc(-c2ccc(OC)c(OC)c2)nc1C#N` the value was inactive: 13.7%; for `COc1ccc(NC(=O)O/N=C/c2ccc(Br)cc2)cc1`, inactive: -10.5%.
Under `Cc1cc(C)cc(NC(=S)Nc2ccc(Cl)c(Cl)c2)c1` stands inactive: -90.3%; under `NC(=O)c1ccccc1NC(=O)Nc1ccc(F)c(Cl)c1`, inactive: 9.49%; under `COc1ccc(S(=O)(=O)NCC(c2ccc(F)cc2)N2CCOCC2)cc1Br` (stereo not drawn), inactive: -1.55%.
Regarding `COc1cc(OC)cc(-c2cc3nc(C)c(CCC(=O)NCc4ccccc4)c(C)n3n2)c1`, the “growth rescue (activation)” value is inactive: -9.99%.
For `CC(C)c1ccc(NC(=O)c2ccc3c(c2)CCN3S(=O)(=O)c2ccccc2)cc1` the value was inactive: -1.26%.
Under `CC(Sc1nc2c(c(=O)[nH]1)CCCC2)C(=O)Nc1ccc(S(N)(=O)=O)cc1` (stereo not drawn) stands inactive: 4.83%; under `CC(OC(=O)c1cc(S(=O)(=O)N2CCOCC2)ccc1F)C(=O)NCC1CCCCC1` (stereo not drawn), inactive: -9.38%; under `COCc1nnc(NC(=O)CCS(=O)(=O)c2ccccc2)s1`, inactive: 16.3%.
On to `Clc1cccc(-c2nc(NCCN3CCOCC3)c3ccccc3n2)c1`, for which the “growth rescue (activation)” value was inactive: 6.72%.
For `NC(=O)c1cc([N+](=O)[O-])ccc1N1CCCCC1`, the “growth rescue (activation)” value was inactive: 19.2%.
For `NS(=O)(=O)c1ccc(NC(=O)/C=C/c2cccs2)cc1` the value was inactive: -3.03%; for `O=C(N/N=C/c1cc(Cl)ccc1O)c1cccnc1`, inactive: -4.2%; for `CCCCNC(=O)C(=O)NCc1ccncc1`, inactive: -3.04%.
For `CSc1ccccc1C(=O)N1CCCC(CCC(=O)NCc2ccc(F)c(F)c2)C1` (stereo not drawn) the value was inactive: 2.37%.
As for `CC(=O)N1CCc2cc(Br)cc(S(=O)(=O)CCC(=O)N3CCN(c4ccccn4)CC3)c21`, the “growth rescue (activation)” value is inactive: -0.0676%.
In the case of `Cn1c(SCC(=O)Nc2sccc2C(N)=O)nnc1-c1ccncc1`, the “growth rescue (activation)” value is inactive: 29%.
For `CCC1(C)CC2(CCCN(CCC(=O)c3ccccc3)C2)CCO1` (stereo not drawn) the value was inactive: 5.28%; for `Clc1ccc(CNc2ccc(CNc3ncn[nH]3)cc2)c(Cl)c1`, inactive: 6.96%.
Under `Cc1ccc(S(=O)(=O)N2CCOCC2)cc1NC(=O)COC(=O)c1ccc2c(c1)OCCO2` stands inactive: -3.85%; under `Cc1ccc(-c2nn(-c3ccccc3)cc2C2CC(c3ccccc3)=NN2C(=O)CCC(=O)O)cc1` (stereo not drawn), inactive: -26.8%.
Under `Cc1cc(=O)[nH]c(N/N=C/c2ccccn2)n1` stands inactive: -0.037%.
In the case of `COc1ccc(CCC(=O)NCc2ccc3c(c2)OCO3)cc1`, the “growth rescue (activation)” value was inactive: 2.3%.
For the compound `O=C(COc1ccc(S(=O)(=O)N2CCCCC2)cc1)NCc1ccccn1`, the “growth rescue (activation)” value was inactive: -7.12%.
For `CCN(CC(N)=O)S(=O)(=O)c1ccc(F)cc1` the value was inactive: 2.14%; for `CCOC(=O)c1ccc(S(=O)(=O)N2CCN(C3CCCC3)CC2)cc1`, inactive: 16.4%; for `COC1(OC)N=C(N)C2(C#N)C(c3cccc(Oc4ccccc4)c3)C12C#N` (stereo not drawn), inactive: -17.4%.
For `Cc1ccc2[nH]c(C)c(/C=C/c3cc[n+](C)cc3)c2c1` the value was inactive: 0.276%.
For `COc1ccc(CC(=O)NNS(=O)(=O)c2cccc([N+](=O)[O-])c2)cc1OC` the value was inactive: 1.72%; for `Cc1cc(Nc2ccccc2)c2c([N+](=O)[O-])ccc(C)c2n1`, inactive: -0.189%; for `CC(=O)Nc1ccc(NC(=O)Cc2ccc(S(=O)(=O)N3CCCCC3)s2)cc1`, inactive: -22.9%.
Turning to `O=C(c1ccc2c(c1)OCO2)N1CCN(S(=O)(=O)N2CCCCC2)CC1`, the “growth rescue (activation)” value is inactive: 20%.
Under `CCc1nc2ccc(C(=O)N(C)CCCN(C)C)cn2c1N(C)Cc1cc2ccccc2s1` stands inactive: 8.62%; under `Cc1noc(C)c1C(=O)OC(C)C(=O)Nc1ccc(S(=O)(=O)NC(C)C)cc1` (stereo not drawn), inactive: 1.57%.
For `CC(C)=C(C)c1cc2nc(NCCCN(C)C)n(C)c(=O)c2s1` the value was inactive: 6.55%; for `COc1ccc(NC(=O)c2cc(-c3ccc(C)cc3)on2)cc1`, inactive: 7.77%; for `CN(Cc1cccc2ncccc12)C(=O)CC1C(=O)NCCN1Cc1ccc(F)cc1` (stereo not drawn), inactive: 4.99%.
For `COc1ccccc1OCc1ccc(C(=O)NC2CCCCC2)o1` the value was inactive: 20%; for `O=C(CCC1CCCN(C(=O)c2ccc3[nH]ccc3c2)C1)N1CCN(c2ccccn2)CC1` (stereo not drawn), inactive: -1.83%; for `Cc1ccc(C(=O)N/C(=C\c2ccc(-c3ccccc3[N+](=O)[O-])o2)C(=O)NCCCN(C)C)cc1`, inactive: 0.652%.
Take `COc1ccc(N(C(=O)CNC(=O)c2ccco2)C(C(=O)NC2CCCC2)c2ccncc2)cc1` (stereo not drawn): the “growth rescue (activation)” value was inactive: -7%.
For `COCCNC(=O)C1(C)CCN(C(=O)/C=C/c2ccccc2)C1` (stereo not drawn) the value was inactive: -4.65%; for `O=C(Nc1cccc(Cl)c1)Nc1cc(S(=O)(=O)N2CCOCC2)ccc1N1CCCC1`, inactive: -8.82%; for `COc1nccnc1NS(=O)(=O)c1ccc(NCc2ccccc2O)cc1`, inactive: 9.17%.
For the compound `CCC(C)(C)NC(=O)C(c1ccccc1Cl)N(C(=O)CCC(=O)Nc1cc(C)on1)c1ccc(NC(C)=O)cc1` (stereo not drawn), the “growth rescue (activation)” value is inactive: 0.514%.
Under `Cc1cccnc1CN1CCN(C(=O)CCc2nnc(CCc3ccccc3)o2)CC1` stands inactive: -6.08%; under `O=C(NCc1ccc(F)cc1)c1cc(C2CCCCN2C(=O)c2ccccc2)on1` (stereo not drawn), inactive: 25.4%.
As to `CCOC(=O)c1[nH]c(CN2CCN(c3ccc(OC)cc3)CC2)c(C(=O)OCC)c1C`, the “growth rescue (activation)” value was inactive: 8.9%.
For `O=C(NCc1ccccn1)C(=O)Nc1cccc2ccccc12` the value was inactive: 27.5%; for `CC(C)(C)c1ccc(Oc2ccc(NC(=O)C3CC=CCC3C(=O)O)cc2)cc1` (stereo not drawn), inactive: 23.1%.
As for `COc1cccc(NC(=O)NNC(=O)CN2C(=O)COc3ccccc32)c1`, the “growth rescue (activation)” value was inactive: 3.03%.
Under `CN(C)C(=O)c1cccc(-c2cnc3c(NC=O)cc(-c4ccc(C(=O)N5CCOCC5)cc4)cn23)c1` stands inactive: -6.62%; under `O=S(=O)(c1ccc(=S)[nH]c1)N1CCCC1`, inactive: 11.3%.
Under `CC(CN(C)Cc1ccccc1)OC(=O)c1ccccc1F` (stereo not drawn) stands inactive: 16.9%; under `O=C(NC1CC2CCC1C2)c1ccco1` (stereo not drawn), inactive: -36.9%; under `O=[N+]([O-])c1ccc2nc(NS(=O)(=O)c3ccccc3[N+](=O)[O-])sc2c1`, inactive: 10.3%.
Under `CCCNC(=O)C1(C)CCCN(Cc2c(C)nn(-c3ccccc3)c2C)C1` (stereo not drawn) stands inactive: 8.23%.
With `O=C(Nc1cccc2ccccc12)c1ccc2sc([C@H]3C[C@H](O)[C@@H](CO)O3)nc2c1`, the “growth rescue (activation)” value was inactive: -0.192%.
For the compound `CCOCCCNc1ncc2c(n1)CC(c1ccc(C)cc1)CC2=O` (stereo not drawn), the “growth rescue (activation)” value was inactive: -12%.
For `Cc1ccc(NC(=O)COC(=O)C(NS(=O)(=O)c2ccc(Cl)cc2)C(C)O)cc1C` (stereo not drawn) the value was inactive: -5.54%; for `CC(=O)Nc1ccc(NC(=O)c2ccc(-c3ccccc3Cl)o2)cc1`, inactive: 34.1%.
For `OCCC1CN(Cc2c(O)ccc3ccccc23)CCN1CCc1ccccc1` (stereo not drawn) the value was inactive: -3.06%.
For `CC(C)(C)NC(=O)C(c1ccc(O)cc1)N(Cc1ccco1)C(=O)CCC(=O)Nc1ccccn1` (stereo not drawn) the value was inactive: -11.7%.
Consider `O=C(Nc1ccc(N2C(=O)C3C4C=CC(C4)C3C2=O)cc1Cl)c1cccs1` (stereo not drawn), for which the “growth rescue (activation)” value is inactive: 5.69%.
For `CC(=O)C(Cc1ccc(Cl)nc1)Cc1ccc(Cl)nc1`, the “growth rescue (activation)” value was inactive: 7.2%.
As for `COc1ccc(NC(=O)c2cccc(-n3c(C)ccc3C)c2)c(OC)c1`, the “growth rescue (activation)” value is inactive: 7%.
Turning to `CC(=O)c1ccc(NC(=S)NC(=O)/C=C/c2ccc(F)cc2)cc1`, the “growth rescue (activation)” value was inactive: 6.28%.
For `OCCN1CCN(Cc2nc(-c3cccc(Cl)c3)no2)CC1` the value was inactive: -9.2%; for `CCOc1ccc(S(=O)(=O)N2CCCC(C(=O)NC3CC3)C2)cc1Cl` (stereo not drawn), inactive: -6.26%; for `CCC(C)NC(=O)Cn1c(=O)n(CCCCCC(=O)NCc2ccccc2Cl)c(=O)c2sccc21` (stereo not drawn), inactive: -3.97%.
For `COc1ccc(S(=O)(=O)Nc2cccnc2)c(C)c1C` the value was inactive: 17.4%.
Under `CCOc1ccc(C(=O)Nc2ccc(S(=O)(=O)Nc3nccc(C)n3)cc2)cc1OCC` stands inactive: -10.2%; under `Cn1c(NCc2ccc3occc3c2)nc2cc(-c3cccc(C(F)(F)F)c3)sc2c1=O`, inactive: 23.1%.
Regarding `CC1(C(=O)NS(=O)(=O)c2ccc(Cl)s2)CCN1C(=O)Cc1cc(F)ccc1F` (stereo not drawn), the “growth rescue (activation)” value was inactive: -2.32%.
For `O=C(NNC(=O)c1cccs1)Nc1cccc(Cl)c1` the value was inactive: 16.3%; for `Cc1nc2cc(NC(=O)NCc3ccccc3)ccc2o1`, inactive: 28.9%.
For `Cc1cc(C(C)(C)C)cc(S(=O)(=O)NCCO)c1C` the value was inactive: 27.4%; for `O=C(CSc1nncc2ccccc12)Nc1ccc(F)cc1`, inactive: 7%.
As for `Cc1ccc(-c2nn(-c3ccccc3)cc2/C=C2\SC(=S)N(CCCCCC(=O)O)C2=O)o1`, the “growth rescue (activation)” value was inactive: 4.62%.
Turning to `CCc1nc2c(OCc3cc(Cl)cc(Cl)c3)cccn2c1N(C)C(=O)c1cccc(OC)c1`, the “growth rescue (activation)” value is inactive: 13.2%.
Consider `COCCNC(=S)Nc1ccccc1[N+](=O)[O-]`, for which the “growth rescue (activation)” value was inactive: 0.778%.
In the case of `CCCN(CCC)CCCNC(=O)c1cc2c(-c3ccc(OC)c(OC)c3)nn(C)c2s1`, the “growth rescue (activation)” value was inactive: 6.67%.
Under `Cc1cccc(Nc2nnc(SCC(=O)NC3CCCc4ccccc43)s2)c1C` (stereo not drawn) stands inactive: 19.5%; under `COc1ccc(-c2cc(C(=O)OC(C)C(=O)Nc3c(C)n(C)n(-c4ccccc4)c3=O)c3ccccc3n2)cc1` (stereo not drawn), inactive: 22.1%.
Regarding `Cc1sc(NC(=O)CSc2nc(O)cc(=O)[nH]2)nc1-c1ccccc1`, the “growth rescue (activation)” value was inactive: 5.55%.
On to `COc1ccc(S(=O)(=O)N(C)CC(=O)N2CCCC2)cc1Cl`, for which the “growth rescue (activation)” value was inactive: 6.29%.
For `COC(CNC(=O)c1cc(-c2ccncc2)nc2ccc(S(=O)(=O)N3CCOCC3)cc12)OC` the value was inactive: -5.31%.
`CCCOc1ccc(S(=O)(=O)N2CCN(C)CC2)c2ccccc12`: the “growth rescue (activation)” value is inactive: -9.96%.
Take `CNc1snc(C)c1C(=O)OCC(=O)NCc1ccccc1OC`: the “growth rescue (activation)” value is inactive: 10.4%.
For `COCCNC(=O)CCCn1c(=O)c2cc(OC)c(OC)cc2n(CC(=O)c2ccccc2)c1=O` the value was inactive: -3.3%.
For `CCCOc1cc(C)nc(-c2ccccc2O)n1` the value was inactive: 11%; for `COCCNC(=O)C(c1ccco1)N(Cc1ccc(OC)cc1)C(=O)Cn1nnc2ccccc21` (stereo not drawn), inactive: 0.72%; for `COc1ccc(N2CCN(CCC3Oc4cc([N+](=O)[O-])ccc4NC3=O)CC2)cc1` (stereo not drawn), inactive: 2.37%.
For `CCCCCOc1ccc(C(=O)CCC(=O)N2CCCC2)cc1` the value was inactive: 3.68%; for `CCOc1ccc(C(=O)NCC(=O)N2CCN(Cc3ccccc3)CC2)cc1`, inactive: 4.5%.
